According to publication PMC6919601, “Identification of Plasmodium dipeptidyl aminopeptidase allosteric inhibitors by high throughput screening” (PLoS ONE, 2019):
Several values for one entry are separate records, joined by “and”; a condition that tells them apart may be missing. Identical values can stand only once. Screen size: about 110,000 compounds; about 230 (0.21%) showed an effect of 50% or more. Some of the results follow.

Each compound was assayed against DPAP1 (Plasmodium falciparum, UniProt Q8IIJ9) (assay: primary screen, percent inhibition; read by cleavage of a fluorogenic dipeptide substrate; higher = more effect of the substance).
Chain of DPAP1 (Q8IIJ9 whole entry, looked up): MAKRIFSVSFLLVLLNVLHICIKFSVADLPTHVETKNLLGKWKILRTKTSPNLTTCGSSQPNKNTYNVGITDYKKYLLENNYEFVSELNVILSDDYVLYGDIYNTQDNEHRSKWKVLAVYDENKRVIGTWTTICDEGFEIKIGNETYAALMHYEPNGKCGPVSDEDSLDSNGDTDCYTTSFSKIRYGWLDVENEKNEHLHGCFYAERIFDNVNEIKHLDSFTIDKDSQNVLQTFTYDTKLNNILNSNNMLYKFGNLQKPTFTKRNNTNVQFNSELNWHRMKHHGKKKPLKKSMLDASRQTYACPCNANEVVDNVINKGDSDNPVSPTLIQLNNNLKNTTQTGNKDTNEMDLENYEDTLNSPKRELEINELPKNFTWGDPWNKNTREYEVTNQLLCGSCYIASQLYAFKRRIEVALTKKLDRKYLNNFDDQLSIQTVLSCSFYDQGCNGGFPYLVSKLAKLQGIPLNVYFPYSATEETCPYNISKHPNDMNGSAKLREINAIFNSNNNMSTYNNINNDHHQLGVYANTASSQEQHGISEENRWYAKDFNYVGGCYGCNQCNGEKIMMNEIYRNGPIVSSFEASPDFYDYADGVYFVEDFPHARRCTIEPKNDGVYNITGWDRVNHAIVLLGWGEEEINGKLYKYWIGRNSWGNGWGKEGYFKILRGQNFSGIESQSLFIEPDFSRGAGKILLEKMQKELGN
Design: species or system P. falciparum D10 trophozoite lysates; single well
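Further: 30 min substrate incubation versus DMSO and 10 µM JCP410 controls.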

Compared with O=C(NCCc1nc2ccccc2n1CCc1ccccc1)c1ccco1, O=C(NCCc1ccc(Cl)cc1)c1cnn(-c2ccccc2)c1-n1cccc1 is lower in “% Inhibition @ 10 uM” value: 2.14% for the first, -3.58% for the second.

First: CCc1nc2ccc(C(=O)N3CCN(c4ccccn4)CC3)cc2nc1CC
Second: CCc1nc2ccc(C(=O)NCCc3ccc(S(N)(=O)=O)cc3)cc2nc1CC
The “% Inhibition @ 10 uM” value of the first is lower: -3.26% for the first, 9.95% for the second.

Going from CCOC(=O)c1c(NC(=O)CNC(C)(C)C)sc2c1CCC2 to CCS(=O)(=O)c1ncc(Cl)c(C(=O)Nc2sc3c(c2C(=O)NCCOC)CCCC3)n1, the “% Inhibition @ 10 uM” value rises from 3.01% to 5.29%.

Compared with Fc1ccc(CCNCc2ccc(Br)cc2)cc1, Fc1ccc(-c2csc(Nc3cccnc3)n2)cc1 is higher in “% Inhibition @ 10 uM” value: 1.02% for the first, 4.96% for the second.

Going from O=C(Nc1cccnc1Cl)C(O)(c1ccccc1)c1ccccc1 to O=C(CCCN1C(=O)c2ccccc2Sc2ncccc21)NCc1ccccc1Cl, the “% Inhibition @ 10 uM” value rises from 5.09% to 6.35%.

Compared with COc1cc(COc2ccc3c(C)c(CCC(=O)O)c(=O)oc3c2)cc(OC)c1OC, COc1cc(C(CC(=O)O)N2Cc3ccccc3C2=O)cc(OC)c1OC (stereo not shown) is lower in “% Inhibition @ 10 uM” value: 0.147% for the first, -1.03% for the second.

Going from CC1(C)CC(=O)C2=C(C1)N(c1ccc(Cl)cc1)C(N)=C(C#N)C2c1cccs1 (stereo not shown) to COc1ccc(Cl)cc1-n1nc(C)c2c1CC(c1ccccc1)CC2=O (stereo not shown), the “% Inhibition @ 10 uM” value falls from 4.07% to -0.703%.

Compared with COc1ccc(C2C(C#N)=C(N)Oc3cc(C)oc(=O)c32)cc1Br (stereo not shown), CCc1ccc(C2C(C#N)=C(N)Oc3[nH]nc(-c4cc(OC)c(OC)c(OC)c4)c32)cc1 (stereo not shown) is higher in “% Inhibition @ 10 uM” value: -5.57% for the first, 10% for the second.

Compared with Cc1ccc(C(=O)NC(C(=O)O)C23CC4CC(CC(C4)C2)C3)cc1 (stereo not shown), CCOC(=O)N1CCC(NC23CC4CC(CC(C4)C2)C3)CC1 is lower in “% Inhibition @ 10 uM” value: 2.51% for the first, -2.95% for the second.

Going from Cc1cc(C)c(NC(=O)CCc2ccccc2)c(C)c1 to CC(CCc1ccccc1)NC(=O)CSc1nc2cccnc2[nH]1 (stereo not shown), the “% Inhibition @ 10 uM” value rises from -5.62% to 6.3%.

Going from CCCSc1nnc(-c2ccccc2N)c(O)n1 to O=C(O)CCn1c2ccccc2c2cnnc(O)c21, the “% Inhibition @ 10 uM” value rises from -1.37% to 4.79%.

Compared with O=C1c2ccccc2C(=O)N1c1cc(Cl)ccc1Cl, O=C1c2ccc([N+](=O)[O-])cc2C(=O)N1Cc1ccccc1 is higher in “% Inhibition @ 10 uM” value: -5.13% for the first, 0.986% for the second.

First: COc1cc(/C=C2\SC(=O)N(CC(=O)Nc3ccc(C)cc3)C2=O)c(Br)cc1O
Second: CCC(C)Oc1ccc(/C=C2/NC(=O)N(CC(=O)Nc3cccc(C)c3)C2=O)cc1 (stereo not shown)
The “% Inhibition @ 10 uM” value of the first is higher: -2.25% for the first, -5.13% for the second.

Going from COc1cccc(C(=O)c2cc3ccc(O)cc3oc2=O)c1 to COc1ccc(NC(=O)CN2c3cccc4cccc(c34)S2(=O)=O)cc1, the “% Inhibition @ 10 uM” value falls from 2.12% to -5.72%.

Going from CN1C(C(=O)NCCc2ccccc2)=CC(c2cccs2)=NS1(=O)=O to Cc1nn(CC(=O)NCc2cccnc2)c(=O)c2ccccc12, the “% Inhibition @ 10 uM” value falls from 3.92% to 2.95%.

Compared with CCCc1nnc2sc(NC(=O)C(C)C)nn12, Cc1ccccc1Cn1cc(NC(=O)c2cc(CC(C)C)on2)cn1 is higher in “% Inhibition @ 10 uM” value: -5.99% for the first, -3.77% for the second.

Going from CCCN1CCN(C(=O)C2CCCN(c3nnc(C)c4c(C)n(-c5ccccc5)nc34)C2)CC1 (stereo not shown) to CCOC(=O)N1CCC(NC2CCN(Cc3ccccc3)CC2)CC1, the “% Inhibition @ 10 uM” value falls from 4.07% to -5.44%.

First: Oc1ncnc2c1sc1nc3c(c(-c4ccco4)c12)CCc1ccccc1-3
Second: O=C(CC(c1ccc(F)cc1)N1Cc2ccccc2C1=O)NCc1ccco1 (stereo not shown)
The “% Inhibition @ 10 uM” value of the first is higher: 3.33% for the first, -6.5% for the second.

Compared with CCc1ccc(C2NC(=O)NC(C)=C2C(=O)OCC(C)C)cc1 (stereo not shown), CC1=C(C(=O)OCCCc2ccccc2)C(c2ccccc2C(F)(F)F)CC(=O)N1 (stereo not shown) is higher in “% Inhibition @ 10 uM” value: -4.18% for the first, 1.58% for the second.

Compared with CCOCCCNC(=O)CN1Cc2ccccc2C1=O, CCOCCCNC(=O)C(NC(=O)c1ccc2c(c1)OCO2)c1ccccc1 (stereo not shown) is higher in “% Inhibition @ 10 uM” value: 3.12% for the first, 5.11% for the second.

First: Cc1ccccc1NC(=O)/C=C/c1ccc2c(c1)OCO2
Second: O=C(COCc1cc(-c2ccc3c(c2)OCO3)on1)NCc1ccccc1
The “% Inhibition @ 10 uM” value of the first is lower: -9.84% for the first, 0.0322% for the second.

First: CCc1nnc(NC(=O)C2=CCN(S(=O)(=O)c3ccccc3)CC2)s1
Second: O=C(O)c1cccc(S(=O)(=O)N2CCN(c3ccccc3)CC2)c1
The “% Inhibition @ 10 uM” value of the first is lower: -7.1% for the first, -4.6% for the second.

Going from Cc1nc2c(c(C)c1C#N)C(=O)c1ccccc1-2 to Cc1cc(-c2cc(C(=O)O)c3cc(Br)ccc3n2)c(C)s1, the “% Inhibition @ 10 uM” value falls from 1.65% to -11.1%.

First: COc1ccc(/C=C2\CCC/C(=C\c3ccc([N+](=O)[O-])cc3)C2=O)cc1
Second: COc1ccc(OC)c(N(CC(=O)Nc2ccccc2)S(=O)(=O)c2ccc(C)cc2)c1
The “% Inhibition @ 10 uM” value of the first is lower: -0.902% for the first, 3.17% for the second.

First: CNC(=S)N(Cc1ccccc1)Cc1ccccc1
Second: CC(C)N(CCCNC(=O)Cn1cccc1C(=O)c1ccccc1)Cc1ccccc1
The “% Inhibition @ 10 uM” value of the first is higher: 2.03% for the first, -0.522% for the second.

Compared with COc1ccc(C2CC3=Nc4ccccc4NC(c4ccncc4)C3=C(O)C2)cc1OC (stereo not shown), CCOc1ccccc1C1C2=C(O)CCCC2=NC(C)=C1C(=O)Nc1ccccc1OC (stereo not shown) is higher in “% Inhibition @ 10 uM” value: -6.34% for the first, 0.851% for the second.

Compared with CC(NC(=O)Nc1ccc(Cl)cc1)c1ccccc1 (stereo not shown), CC(Oc1ccccc1)C(=O)Nc1ccc(Cl)cc1 (stereo not shown) is higher in “% Inhibition @ 10 uM” value: -4.72% for the first, -3.28% for the second.

Compared with COc1cccc([C@H]2NCC[C@@]3(O)CCCC[C@H]23)c1OC, CC1CCCCC1NC(=O)CCCc1cn(C)c2ccccc12 (stereo not shown) is higher in “% Inhibition @ 10 uM” value: 1.66% for the first, 3.66% for the second.

Compared with COc1ccccc1NC(=O)c1c(NC(=O)CCC(=O)O)sc2c1CCC(C)C2 (stereo not shown), COc1ccc(NC(=O)CC2SC(Nc3ccccc3Cl)=NC2=O)c(OC)c1 (stereo not shown) is lower in “% Inhibition @ 10 uM” value: 9.59% for the first, 5.03% for the second.

Compared with Cc1ccccc1OCCSc1nc2ccccc2n1CCO, COCCCNC(=O)CCCn1nc(-c2ccccc2)c2cc(Cl)ccc21 is higher in “% Inhibition @ 10 uM” value: -4.89% for the first, -1.37% for the second.

First: Sc1nnc(CN2CCC(Cc3ccccc3)CC2)n1-c1ccccc1
Second: O=C(Cn1nc(Cc2ccncc2)c2ccccc2c1=O)NC1CCN(Cc2ccccc2)CC1
The “% Inhibition @ 10 uM” value of the first is lower: -1.5% for the first, 0.44% for the second.

Going from CC(CCc1ccc(O)cc1)NC1CCCC1 (stereo not shown) to Cc1ccc(NC(=O)CCC2CCCC2)nc1, the “% Inhibition @ 10 uM” value rises from 0.565% to 0.907%.

First: Cc1c(CCC(=O)N2CCOCC2)c(=O)oc2cc3occ(C(C)(C)C)c3cc12
Second: Cn1c(C(=O)NCCCN2CCOCC2)cc2sccc21
The “% Inhibition @ 10 uM” value of the first is higher: -2.57% for the first, -6.68% for the second.

Going from CC(=O)Nc1ccc(S(=O)(=O)N2c3ccc(F)cc3CCC2C)cc1 (stereo not shown) to Cc1ccc(CN(CC(=O)O)S(=O)(=O)c2ccc(Cl)cc2)cc1, the “% Inhibition @ 10 uM” value falls from 0.316% to -0.661%.

First: Cc1ccc(C(C)C)c(OCCNS(C)(=O)=O)c1
Second: C=CCNC(=O)CN(c1ccc(OC)c(Cl)c1)S(=O)(=O)c1ccccc1
The “% Inhibition @ 10 uM” value of the first is higher: 1.76% for the first, 0.324% for the second.

Compared with O=C(Nc1ccc(NC(=O)C2CC2c2ccccc2)cc1)C1CC1c1ccccc1 (stereo not shown), O=C(Cc1ccccc1)Nc1ccc(-c2ccc(NC(=O)Cc3ccccc3)cc2)cc1 is lower in “% Inhibition @ 10 uM” value: 7% for the first, 4.33% for the second.

Compared with C=CCNc1nc(N)c(C(=O)c2ccccc2)s1, CCC(NC(=O)c1ccoc1C)c1ccccc1 (stereo not shown) is higher in “% Inhibition @ 10 uM” value: -3.77% for the first, 4.98% for the second.

First: Cc1cccc(-n2nnc(-c3nsc(NC(=O)c4ccc(Cl)cc4)n3)c2C)c1
Second: CCN(CC)Cc1cc(CCNC(=O)c2ccc(Cl)cc2)ccc1O
The “% Inhibition @ 10 uM” value of the first is higher: 0.92% for the first, -2.73% for the second.

Compared with O=C(O)CCCC(=O)N1N=C(c2ccco2)CC1c1ccco1 (stereo not shown), O=C(Cn1nnc2sc(-c3ccccc3)cc2c1=O)N1CCCCCC1 is lower in “% Inhibition @ 10 uM” value: -0.366% for the first, -2.71% for the second.

First: COc1ccc(C(=O)N2CCOC(COc3ccccc3)C2)cc1OC (stereo not shown)
Second: COc1ccc(CCNCc2c(C(=O)O)c(C)n(Cc3ccccc3F)c2C)cc1OC
The “% Inhibition @ 10 uM” value of the first is higher: 2.72% for the first, 1.41% for the second.

Compared with Cc1cc(C)c2c(n1)SCC(=O)N2CC(=O)NCCc1ccc(Cl)cc1, CC1c2nc3ccccc3n2C(CC(=O)NCc2ccc(Cl)cc2)C(=O)N1Cc1ccccc1 (stereo not shown) is lower in “% Inhibition @ 10 uM” value: 2.65% for the first, 0.44% for the second.

Going from COc1ccccc1OC(c1ccccc1)P(=O)(OC)OC (stereo not shown) to COc1ccc(-c2nc(S)n(CN3CCC(c4ccccc4)CC3)n2)cc1, the “% Inhibition @ 10 uM” value rises from -6.06% to 14.1%.

Going from CC12CN3CC(C)(CN(C1)C3c1ccccc1F)C2 (stereo not shown) to O=S(=O)(c1ccc(F)c(Cl)c1)N1CCN(Cc2ccccc2)CC1, the “% Inhibition @ 10 uM” value falls from -1.2% to -4.71%.

First: CCC(C(=O)NCc1ccccc1Cl)n1nc(C)n2c(cc3sccc32)c1=O (stereo not shown)
Second: Cc1ccc(-c2cc(NC(=O)c3cccs3)on2)cc1
The “% Inhibition @ 10 uM” value of the first is lower: -1.58% for the first, 1.9% for the second.

First: CCCOc1ccc2oc(=O)c3c(c2c1)CCCN3C(=O)CN1CCCCC1CC (stereo not shown)
Second: O=C(NCc1ccc2c(c1)OCO2)C1CC(=O)N(C2CCCCCC2)C1 (stereo not shown)
The “% Inhibition @ 10 uM” value of the first is higher: 7.43% for the first, -1.34% for the second.

Compared with CCn1c2ccc(F)cc2c2nc(C)sc21, CCCCNc1nc2c(-c3cccc(F)c3)nnn2c2ccccc12 is lower in “% Inhibition @ 10 uM” value: -1.33% for the first, -4.69% for the second.

First: CS(=O)(=O)c1ccc(-c2cccc([C@H](N[C@@H](CC3CCCCC3)C(=O)NC3(C#N)CC3)C(F)(F)F)c2)cc1
Second: CCc1ccccc1N(CC(=O)N(CC)CC)S(=O)(=O)c1ccc(C)cc1
The “% Inhibition @ 10 uM” value of the first is lower: -4.82% for the first, 8.26% for the second.

First: CCOc1ccc(CCNCc2c(C(=O)O)c(C)n(Cc3cc(C)ccc3C)c2C)cc1OCC
Second: Cc1cc(C)c2c(n1)nn1c(C)c(CCC(=O)NCCCN3CCCC3=O)c(C)nc21
The “% Inhibition @ 10 uM” value of the first is higher: 1.41% for the first, -4.24% for the second.

Compared with CC(C)c1ccc2c(c1)C(N1CCN(C)CC1)=Cc1cccnc1S2, O=C(c1ccc2c(Cl)c3c(nc2c1)CCCC3)N1CCC2(CC1)OCCO2 is lower in “% Inhibition @ 10 uM” value: 5.49% for the first, -1.24% for the second.

N#Cc1ccc(NC(=O)[C@@H]2CCCC[C@@H]2C(=O)O)cc1 was tested, and the “% Inhibition @ 10 uM” value was 4.57%.

With COc1cccc(OCc2ccc(C(=O)Nc3cccc(F)c3)cc2)c1 the “% Inhibition @ 10 uM” value was 2.64% and -5.07%.
